From patent publication US9556117B2, “Indole carboxamide derivatives as P2X7 receptor antagonists” (ACTELION PHARMACEUTICALS LTD, priority 2012, dated 2017)
pIC50: −log10 of the molar value.

Molecular target: human recombinant P2X7 receptor (Homo sapiens (Human), UniProt Q99572)
Test: YO-PRO1 assay, P2X7 receptor antagonistic activity
Details: HEK-293 cells expressing human recombinant P2X7 receptor; YO-PRO-1 fluorescence; ATP 250 μM for 90 minutes

UniProt Q99572, sequence (Q99572 whole entry): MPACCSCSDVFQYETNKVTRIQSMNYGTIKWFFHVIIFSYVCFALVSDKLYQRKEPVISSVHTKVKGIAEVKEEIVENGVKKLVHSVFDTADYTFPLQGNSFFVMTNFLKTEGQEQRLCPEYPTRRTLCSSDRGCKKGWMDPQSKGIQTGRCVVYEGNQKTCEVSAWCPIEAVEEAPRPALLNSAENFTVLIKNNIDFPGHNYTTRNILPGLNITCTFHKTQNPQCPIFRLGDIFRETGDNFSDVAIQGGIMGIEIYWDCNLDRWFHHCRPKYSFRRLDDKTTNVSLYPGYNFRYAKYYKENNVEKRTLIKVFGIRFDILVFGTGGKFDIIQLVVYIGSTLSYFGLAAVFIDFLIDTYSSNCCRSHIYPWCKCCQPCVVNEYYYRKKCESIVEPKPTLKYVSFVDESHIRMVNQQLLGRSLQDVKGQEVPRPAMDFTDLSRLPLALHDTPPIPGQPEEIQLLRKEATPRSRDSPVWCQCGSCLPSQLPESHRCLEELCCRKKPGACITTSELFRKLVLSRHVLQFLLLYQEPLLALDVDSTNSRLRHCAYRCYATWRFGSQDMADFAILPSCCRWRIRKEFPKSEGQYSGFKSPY

SMILES | pIC50
O=C(N[C@H](CO)C1CCCCC1)c1ccc2[nH]ccc2c1Cl [Example 1, 4-Chloro-1H-indole-5-carboxylic acid ((S)-1-cyclohexyl-2-hydroxy-ethyl)-amide] | 7.89
O=C(NCC1(O)CCCCC1)c1ccc2[nH]ccc2c1Cl [Example 2, 4-Chloro-1H-indole-5-carboxylic acid (1-hydroxy-cyclohexylmethyl)-amide] | 7.46
O=C(NCC1(O)CCCCCC1)c1ccc2[nH]ccc2c1Cl [Example 3, 4-Chloro-1H-indole-5-carboxylic acid (1-hydroxy-cycloheptylmethyl)-amide] | 7.92
O=C(NCC1(O)CCC(F)(F)CC1)c1ccc2[nH]ccc2c1Cl [Example 4, 4-Chloro-1H-indole-5-carboxylic acid (4,4-difluoro-1-hydroxy-cyclohexylmethyl)-amide] | 7.38
O=C(N[C@H](CO)C1CCC(F)(F)CC1)c1ccc2[nH]ccc2c1Cl [Example 5, 4-Chloro-1H-indole-5-carboxylic acid [(S)-1-(4,4-difluoro-cyclohexyl)-2-hydroxy-ethyl]-amide] | 7.11
Cn1ccc2c(Cl)c(C(=O)NCC3(O)CCCCC3)ccc21 [Example 6, 4-Chloro-1-methyl-1H-indole-5-carboxylic acid (1-hydroxy-cyclohexylmethyl)-amide] | 6.68
Cn1ccc2c(Cl)c(C(=O)N[C@H](CO)C3CCCCC3)ccc21 [Example 7, 4-Chloro-1-methyl-1H-indole-5-carboxylic acid ((S)-1-cyclohexyl-2-hydroxy-ethyl)-amide] | 7.30
O=Cc1c[nH]c2ccc(C(=O)N[C@H](CO)C3CCCCC3)c(Cl)c12 [Example 8, 4-Chloro-3-formyl-1H-indole-5-carboxylic acid ((S)-1-cyclohexyl-2-hydroxy-ethyl)-amide] | 6.70
O=Cc1c[nH]c2ccc(C(=O)NCC3(O)CCCCC3)c(Cl)c12 [Example 9, 4-Chloro-3-formyl-1H-indole-5-carboxylic acid (1-hydroxy-cyclohexylmethyl)-amide] | 5.94
O=C(NCC1(c2cnc(C(F)(F)F)nc2)CCCCC1)c1ccc2[nH]ccc2c1Cl [Example 11, 4-Chloro-1H-indole-5-carboxylic acid [1-(2-trifluoromethyl-pyrimidin-5-yl)-cyclohexylmethyl]-amide] | 8.39
O=C(NCC1(c2ccc(Cl)nc2)CCCCC1)c1ccc2[nH]ccc2c1Cl [Example 12, 4-Chloro-1H-indole-5-carboxylic acid [1-(6-chloro-pyridin-3-yl)-cyclohexylmethyl]-amide] | 8.49
O=C(NCC1(c2ccc(C(F)(F)F)nc2)CCCCC1)c1ccc2[nH]ccc2c1Cl [Example 13, 4-Chloro-1H-indole-5-carboxylic acid [1-(6-trifluoromethyl-pyridin-3-yl)-cyclohexylmethyl]-amide] | 7.77
O=C(NCC1(c2ccc(Cl)nc2)CCC(F)(F)CC1)c1ccc2[nH]ccc2c1Cl [Example 14, 4-Chloro-1H-indole-5-carboxylic acid [1-(6-chloro-pyridin-3-yl)-4,4-difluoro-cyclohexylmethyl]-amide] | 8.35
O=C(NCC1(c2ccc(Cl)cc2)CCCCC1)c1ccc2[nH]ccc2c1Cl [Example 15, 4-Chloro-1H-indole-5-carboxylic acid [1-(4-chloro-phenyl)-cyclohexylmethyl]-amide] | 6.62
O=C(NCC1(c2ccc(C(F)(F)F)cc2)CCCCC1)c1ccc2[nH]ccc2c1Cl [Example 16, 4-Chloro-1H-indole-5-carboxylic acid [1-(4-trifluoromethyl-phenyl)-cyclohexylmethyl]-amide] | 6.35
O=C(NCC1(c2cccnc2)CCCCC1)c1ccc2[nH]ccc2c1Cl [Example 17, 4-Chloro-1H-indole-5-carboxylic acid (1-pyridin-3-yl-cyclohexylmethyl)-amide] | 7.85
O=C(NCC1(c2cccnc2)CCCC1)c1ccc2[nH]ccc2c1Cl [Example 18, 4-Chloro-1H-indole-5-carboxylic acid (1-pyridin-3-yl-cyclopentylmethyl)-amide] | 6.75
